Where a name gives a salt, the structure may show the parent alone. ± gives the standard deviation of the averaged measurements. This is one part of the list.

Conditions in all cases: priming compound concentration 100 µM
The subject of test [1] is hAMSC donor 1. Briefly: Hoechst total cell count ratio vs vehicle control; higher = more cells (less toxicity).
The subject of test [2] is hAMSC donor 2. The test is described as above.
Test [3] relates to hAMSC donor 1. Briefly: transgenic luciferase activity (RLU/mg protein) fold change vs vehicle control (ratio); higher = more transgene expression.
Test [4] deals with hAMSC donor 2. The test is described as above.
Test [5] has as its system hAMSC donor 1. As to the kind of experiment: transfection efficiency (EGFP+ cells / Hoechst count) fold change vs vehicle control (ratio); hAMSC are human adipose-derived mesenchymal stem cells given an EGFP-luciferase plasmid by lipofection; higher = enhanced transfection.
The subject of test [6] is hAMSC donor 2. The test is described as above.
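Throughout, for Hoechst total cell count ratio vs vehicle control: compound added 30 min before Lipofectamine 3000 lipoplex delivery, triplicate-well means expressed against DMSO vehicle control wells of the same 96-well plate.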
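Throughout, for transfection efficiency (EGFP+ cells / Hoechst count) fold change vs vehicle control: compounds added 30 min before Lipofectamine 3000 lipoplex transfection, triplicate means relative to DMSO vehicle wells on the same plate, luciferase RLU normalized to BCA total protein.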
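Throughout, for transgenic luciferase activity (RLU/mg protein) fold change vs vehicle control: compounds in DMSO added 30 min before Lipofectamine 3000 transfection of pEGFP-Luc in 96-well plates, values are means of triplicate wells over DMSO vehicle wells on the same plate.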

`COc1ccc2[nH]c([S@@+]([O-])Cc3ncc(C)c(OC)c3C)nc2c1` [Esomeprazole magnesium]: the “Hoechst total cell count ratio” value with hAMSC donor 1 [1] was 1.9 ± 0.51; with hAMSC donor 2 [2], 1.08 ± 0.068. For the same molecule, the values for the transgenic luciferase activity with hAMSC donor 1 [3] and with hAMSC donor 2 [4] were 1.12 ± 0.46 and 0.863 ± 0.31, respectively. The transfection efficiency is 1.01 ± 0.23 in the test with hAMSC donor 1 [5] and 0.726 ± 0.043 in the test with hAMSC donor 2 [6].
Turning to `Cc1c(O)cccc1C(=O)N[C@@H](CSc1ccccc1)[C@H](O)CN1C[C@H]2CCCC[C@H]2C[C@H]1C(=O)NC(C)(C)C` [Nelfinavir mesylate], the “Hoechst total cell count ratio” value turned out to be 0.516 ± 0.071 with hAMSC donor 1 [1] and 0.252 ± 0.024 in the test on hAMSC donor 2 [2]. The transgenic luciferase activity in the test on hAMSC donor 1 [3] worked out at 0.409 ± 0.11; in the test with hAMSC donor 2 [4] it was 2.02 ± 0.84. Moreover, the transfection efficiency in the test on hAMSC donor 1 [5] stood at 0.57 ± 0.073; in the test on hAMSC donor 2 [6], 1.19 ± 0.26.
With `C[C@H]1C[C@@H]2[C@H]([C@@H](O)C[C@@]3(C)[C@H]2CC[C@]3(O)C(=O)CO)[C@@]2(C)C=CC(=O)C=C12` [Methylprednisolone], the “Hoechst total cell count ratio” value came out at 1.08 ± 0.11 in the test on hAMSC donor 1 [1] and 1.52 ± 0.32 with hAMSC donor 2 [2]. The transgenic luciferase activity in the test with hAMSC donor 1 [3] is 5.93 ± 0.6; in the test with hAMSC donor 2 [4] it was 3.08 ± 0.8. Also, the transfection efficiency in the test with hAMSC donor 1 [5] was determined as 2.87 ± 0.41; in the test with hAMSC donor 2 [6], 1.49 ± 0.27.
`CN(Cc1cnc2nc(N)nc(N)c2n1)c1ccc(C(=O)N[C@@H](CCC(=O)O)C(=O)O)cc1` [Methotrexate trihydrate]: the “Hoechst total cell count ratio” value with hAMSC donor 1 [1] was 1.16 ± 0.25; with hAMSC donor 2 [2], 1.11 ± 0.18. Besides, the transgenic luciferase activity in the test on hAMSC donor 1 [3] was determined as 0.548 ± 0.24; in the test with hAMSC donor 2 [4], 0.193 ± 0.079. For the same molecule, the transfection efficiency with hAMSC donor 1 [5] is 1.21 ± 0.36; with hAMSC donor 2 [6], 1.04 ± 0.23.
In the case of `CC(Cc1ccccc1)(NC(=O)CN)c1ccccc1` (stereo not given) [Remacemide hydrochloride], the “Hoechst total cell count ratio” value in the test with hAMSC donor 1 [1] worked out at 1.58 ± 0.17; in the test with hAMSC donor 2 [2], 1.3 ± 0.1. Further, the transgenic luciferase activity in the test with hAMSC donor 1 [3] is 1.3 ± 0.7; with hAMSC donor 2 [4], 0.472 ± 0.0081. In addition, the transfection efficiency with hAMSC donor 1 [5] is 1.05 ± 0.15; in the test with hAMSC donor 2 [6] it was 0.586 ± 0.048.
As to `CC1(C)S[C@@H]2[C@H](NC(=O)COc3ccccc3)C(=O)N2[C@H]1C(=O)O` [Penicillin V], the entries for the “Hoechst total cell count ratio” value with hAMSC donor 1 [1] and in the test with hAMSC donor 2 [2] were 0.938 ± 0.072 and 0.869 ± 0.1, respectively. The results for the transgenic luciferase activity in the test with hAMSC donor 1 [3] and in the test on hAMSC donor 2 [4] were 0.548 ± 0.4 and 1.14 ± 0.15, respectively. Also, the results for the transfection efficiency with hAMSC donor 1 [5] and in the test with hAMSC donor 2 [6] were 0.958 ± 0.21 and 0.969 ± 0.16, respectively.
Regarding `CCOc1cc(N)c(Cl)cc1C(=O)NCC1CN(Cc2ccc(F)cc2)CCO1` (stereo not given) [Mosapride citrate], the “Hoechst total cell count ratio” value amounted to 1.84 ± 0.087 in the test on hAMSC donor 1 [1] and 1.27 ± 0.058 in the test with hAMSC donor 2 [2]. For the same molecule, the results for the transgenic luciferase activity in the test on hAMSC donor 1 [3] and in the test with hAMSC donor 2 [4] were 1.48 ± 0.043 and 1.01 ± 0.2, respectively. The figures for the transfection efficiency with hAMSC donor 1 [5] and in the test on hAMSC donor 2 [6] were 1.48 ± 0.2 and 0.836 ± 0.21, respectively.
Regarding `CO[C@@H]1[C@@H](O[C@@H]2O[C@H](C)[C@@H](O[C@H]3C[C@@](C)(O)[C@@H](OC(=O)CC(C)C)[C@H](C)O3)[C@H](N(C)C)[C@H]2O)[C@@H](CC=O)C[C@@H](C)[C@@H](O)/C=C/C=C/C[C@@H](C)OC(=O)C[C@H]1O` [Kitasamycin], the “Hoechst total cell count ratio” value with hAMSC donor 1 [1] is 1.57 ± 0.13; in the test with hAMSC donor 2 [2], 1.4 ± 0.18. Besides, the transgenic luciferase activity is 0.985 ± 0.42 in the test with hAMSC donor 1 [3] and 0.446 ± 0.24 in the test with hAMSC donor 2 [4]. Further, the values for the transfection efficiency in the test with hAMSC donor 1 [5] and with hAMSC donor 2 [6] were 0.534 ± 0.31 and 0.753 ± 0.087, respectively.
Turning to `CCCCCCCCCCC[C@@H](C[C@@H]1OC(=O)[C@H]1CCCCCC)OC(=O)[C@H](CC(C)C)NC=O` [Orlistat], the “Hoechst total cell count ratio” value in the test on hAMSC donor 1 [1] amounted to 1.81 ± 0.16; with hAMSC donor 2 [2] it was 1.28 ± 0.062. Further, the transgenic luciferase activity was 0.389 ± 0.27 with hAMSC donor 1 [3] and 0.293 ± 0.064 in the test on hAMSC donor 2 [4]. Further, the transfection efficiency in the test on hAMSC donor 1 [5] worked out at 0.606 ± 0.093; in the test with hAMSC donor 2 [6] it was 0.331 ± 0.058.
With `C#C[C@]1(O)CC[C@H]2[C@@H]3[C@H](C)CC4=C(CCC(=O)C4)[C@H]3CC[C@@]21C` [Tibolone], the results for the “Hoechst total cell count ratio” value with hAMSC donor 1 [1] and in the test on hAMSC donor 2 [2] were 0.868 ± 0.077 and 1.38 ± 0.3, respectively. Further, the results for the transgenic luciferase activity in the test on hAMSC donor 1 [3] and with hAMSC donor 2 [4] were 0.372 ± 0.2 and 1.1 ± 0.11, respectively. Moreover, the transfection efficiency amounted to 0.361 ± 0.3 with hAMSC donor 1 [5] and 0.519 ± 0.052 with hAMSC donor 2 [6].
As to `CC(=O)OCC(=O)NCCCOc1cccc(CN2CCCCC2)c1` [Roxatidine acetate hydrochloride], the results for the “Hoechst total cell count ratio” value with hAMSC donor 1 [1] and in the test on hAMSC donor 2 [2] were 1.87 ± 0.34 and 1.05 ± 0.06, respectively. In addition, the transgenic luciferase activity in the test with hAMSC donor 1 [3] turned out to be 1.49 ± 0.97; in the test on hAMSC donor 2 [4], 1.26 ± 0.19. The transfection efficiency in the test on hAMSC donor 1 [5] is 0.585 ± 0.056; with hAMSC donor 2 [6] it was 0.962 ± 0.11.
For `CCCCCCNC(=O)n1cc(F)c(=O)[nH]c1=O` [Carmofur], the “Hoechst total cell count ratio” value worked out at 1.11 ± 0.19 in the test with hAMSC donor 1 [1] and 0.471 ± 0.073 in the test with hAMSC donor 2 [2]. Moreover, the transgenic luciferase activity stood at 0.328 ± 0.28 in the test on hAMSC donor 1 [3] and 1.05 ± 0.63 in the test on hAMSC donor 2 [4]. Besides, the figures for the transfection efficiency with hAMSC donor 1 [5] and in the test on hAMSC donor 2 [6] were 1.42 ± 0.59 and 1.09 ± 0.24, respectively.
For `COc1cccc2c1C(=O)c1c(O)c3c(c(O)c1C2=O)C[C@@](O)(C(=O)CO)C[C@@H]3O[C@H]1C[C@H](N)[C@H](O)[C@H](C)O1` [Doxorubicin hydrochloride], the results for the “Hoechst total cell count ratio” value in the test on hAMSC donor 1 [1] and with hAMSC donor 2 [2] were 0.171 ± 0.1 and 0.108 ± 0.014, respectively. Further, the transgenic luciferase activity with hAMSC donor 1 [3] came out at 0.000327 ± 0.00011; in the test with hAMSC donor 2 [4], 0.000887 ± 0.00071. For the same molecule, the transfection efficiency was found to be 0.971 ± 0.7 with hAMSC donor 1 [5] and 1.05 ± 0.47 in the test on hAMSC donor 2 [6].
Regarding `CC(C)NCC(O)c1ccc(NS(C)(=O)=O)cc1` (stereo not given) [Sotalol hydrochloride], the results for the “Hoechst total cell count ratio” value with hAMSC donor 1 [1] and with hAMSC donor 2 [2] were 1.27 ± 0.034 and 1.48 ± 0.42, respectively. In addition, the transgenic luciferase activity in the test on hAMSC donor 1 [3] came to 0.404 ± 0.042; with hAMSC donor 2 [4], 1.16 ± 0.48. In addition, the figures for the transfection efficiency with hAMSC donor 1 [5] and in the test on hAMSC donor 2 [6] were 0.61 ± 0.16 and 1.22 ± 0.013, respectively.
On to `CNNCc1ccc(C(=O)NC(C)C)cc1` [Procarbazine hydrochloride], for which the “Hoechst total cell count ratio” value is 1.33 ± 0.29 in the test on hAMSC donor 1 [1] and 1.25 ± 0.079 in the test on hAMSC donor 2 [2]. The results for the transgenic luciferase activity with hAMSC donor 1 [3] and in the test on hAMSC donor 2 [4] were 1.24 ± 0.31 and 0.678 ± 0.066, respectively. The values for the transfection efficiency in the test on hAMSC donor 1 [5] and with hAMSC donor 2 [6] were 1.14 ± 0.12 and 0.726 ± 0.057, respectively.
Regarding `Cc1nnc(SCC2=C(C(=O)O)N3C(=O)[C@@H](NC(=O)Cn4cnnn4)[C@H]3SC2)s1` [Cefazolin sodium], the “Hoechst total cell count ratio” value worked out at 1.29 ± 0.14 in the test on hAMSC donor 1 [1] and 1.03 ± 0.16 in the test on hAMSC donor 2 [2]. Further, the transgenic luciferase activity in the test on hAMSC donor 1 [3] turned out to be 1.6 ± 0.58; in the test with hAMSC donor 2 [4] it was 0.939 ± 0.41. Moreover, the transfection efficiency in the test with hAMSC donor 1 [5] was determined as 1.29 ± 0.11; with hAMSC donor 2 [6], 1.43 ± 0.16.
As for `COc1cc(C[C@@H](CO)[C@H](CO)Cc2ccc(O)c(OC)c2)ccc1O` [Secoisolariciresinol], the “Hoechst total cell count ratio” value is 1.52 ± 0.24 in the test with hAMSC donor 1 [1] and 0.738 ± 0.11 in the test on hAMSC donor 2 [2]. Moreover, the transgenic luciferase activity with hAMSC donor 1 [3] came to 0.411 ± 0.13; in the test on hAMSC donor 2 [4], 0.375 ± 0.1. For the same molecule, the transfection efficiency in the test on hAMSC donor 1 [5] was 1.1 ± 0.08; in the test on hAMSC donor 2 [6], 1.06 ± 0.032.
Regarding `CN1C(C(=O)Nc2ccccn2)=C(O)c2ccccc2S1(=O)=O` [Piroxicam], the results for the “Hoechst total cell count ratio” value in the test on hAMSC donor 1 [1] and with hAMSC donor 2 [2] were 0.456 ± 0.043 and 0.499 ± 0.26, respectively. Further, the values for the transgenic luciferase activity with hAMSC donor 1 [3] and in the test on hAMSC donor 2 [4] were 1.42 ± 0.56 and 0.38 ± 0.24, respectively. Further, the transfection efficiency stood at 3.24 ± 0.67 in the test with hAMSC donor 1 [5] and 1.02 ± 0.31 in the test with hAMSC donor 2 [6].
Regarding `CCCCNC(=O)NS(=O)(=O)c1ccc(C)cc1` [Tolbutamide], the “Hoechst total cell count ratio” value in the test on hAMSC donor 1 [1] came to 1.19 ± 0.021; in the test with hAMSC donor 2 [2], 1.68 ± 0.34. Besides, the figures for the transgenic luciferase activity in the test on hAMSC donor 1 [3] and with hAMSC donor 2 [4] were 0.755 ± 0.21 and 0.305 ± 0.053, respectively. Moreover, the figures for the transfection efficiency in the test with hAMSC donor 1 [5] and with hAMSC donor 2 [6] were 1.04 ± 0.28 and 0.74 ± 0.11, respectively.
For the molecule `O=C(O[C@@H]1C[C@@H]2C[C@H]3C[C@H](C1)N2CC3=O)c1c[nH]c2ccccc12` [Dolasetron mesylate], the “Hoechst total cell count ratio” value in the test on hAMSC donor 1 [1] stood at 1.2 ± 0.026; in the test on hAMSC donor 2 [2] it was 1.28 ± 0.048. Moreover, the transgenic luciferase activity in the test with hAMSC donor 1 [3] is 0.88 ± 0.094; with hAMSC donor 2 [4], 1.19 ± 0.19. The transfection efficiency in the test on hAMSC donor 1 [5] was found to be 0.824 ± 0.11; in the test with hAMSC donor 2 [6], 1.35 ± 0.44.
